Reference: paper PMC9399069, “Imaging PARP with [^18F]rucaparib in pancreatic cancer models” (European Journal of Nuclear Medicine and Molecular Imaging, 2022)
“And” between values parts separate entries of the source, which are not always exact repeats. Identical values can stand only once. The source gives many values for each of these; only a part stands here.

Test system: PSN1 xenografts
Test: Ex vivo biodistribution of [18F]rucaparib in PSN1 tumour-bearing mice
Set-up: species or system Balb/c nu/nu mice
Procedure: Female Balb/c nu/nu (OlaHsd-Foxn1^nu) mice, aged 4–6 weeks, were purchased from Envigo (UK). Animals were housed in IVC cages, up to 6 per cage, in an artificial day–night cycle facility. Food and water were provided ad libitum.
PSN1 cells were harvested using trypsin, washed twice with PBS and reconstituted in PBS:Matrigel® Matrix High Concentration (1:1). Cell suspensions (PSN1: 2 × 10^6 cells/ 100 μL) were injected subcutaneously in the lower right flank.
Animals were administered [^18F]rucaparib (0.87–11.38 MBq in 100 μL of PBS, Am = 1.5–30.9 GBq/μmol) by intravenous injection via the lateral tail vein. To evaluate the selectivity of tumour uptake, an excess of unlabelled rucaparib or olaparib (0.5 mg) was co-administered as a blocking agent in some animals. Dynamic PET images (1 h) were acquired using a MILabs VECTor^4 camera, equipped with an ultra-high resolution rat/mouse collimator (1.8 mm), followed by a cone-beam CT scan (55 kV, 0.19 mA) for anatomical reference and attenuation correction. Animal was anesthetised by 4% isoflurane gas (0.5 L/min O2) and maintained at 2.5% at 37 °C throughout the duration of image acquisition. PET images were reconstructed using U-SPECT-Rec3.22 software (MILabs, Utrecht, The Netherlands), applying a pixel-based algorithm, ordered subset expectation maximisation (OSEM) with 6 subsets, 4 iterations and 0.8 mm voxel size for fluorine-18 (energy window settings 477.9–584.1 keV). Reconstructed PET and CT images were viewed and analysed using PMOD v.3.37 (PMOD Technologies, Zurich, Switzerland).
Either 1 h or 2 h after radiolabelled compound injection, animals were euthanised. Selected organs, tissues and blood were removed, and the percentage of the injected dose per gram of tissue (%ID/g) was determined, using a HIDEX automated gamma counter.

[1] = 1 h post-injection, i.v., individual animals (n=3)
[2] = 2 h after i.v. injection, non-treated (no blocking agent), individual animals (n=3)
[3] = 2 h after i.v. injection, olaparib-blocked (co-injection of olaparib 0.5 mg), individual animals (n=3)
[4] = 2 h after i.v. injection, rucaparib-blocked (co-injection of rucaparib 0.5 mg), individual animals (n=3)
[5] = 2 h post-injection, i.v., individual animals (n=6)

Ex vivo biodistribution, Liver [1]: 4.24 %ID/g and 22.33 %ID/g
Ex vivo biodistribution, Stomach [1]: 9.10 %ID/g and 6.86 %ID/g and 7.46 %ID/g
Ex vivo biodistribution, Blood [2]: 0.92 %ID/g and 0.49 %ID/g and 0.48 %ID/g
Ex vivo biodistribution, Bone [2]: 3.49 %ID/g and 2.71 %ID/g and 2.38 %ID/g
Ex vivo biodistribution, Brain [2]: 0.09 %ID/g and 0.06 %ID/g (2×)
Ex vivo biodistribution, Fat [2]: 1.32 %ID/g and 0.74 %ID/g and 0.84 %ID/g
Ex vivo biodistribution, Heart [2]: 2.44 %ID/g and 2.15 %ID/g and 1.73 %ID/g
Ex vivo biodistribution, Kidney [2]: 7.28 %ID/g and 6.56 %ID/g and 5.54 %ID/g
Ex vivo biodistribution, Lung [2]: 8.77 %ID/g and 6.24 %ID/g and 4.58 %ID/g
Ex vivo biodistribution, Muscle [2]: 2.51 %ID/g and 1.58 %ID/g and 1.90 %ID/g
Ex vivo biodistribution, Stomach [2]: 4.66 %ID/g and 5.94 %ID/g and 7.68 %ID/g
Ex vivo biodistribution, Tumour [2]: 2.58 %ID/g and 2.10 %ID/g and 1.74 %ID/g
Ex vivo biodistribution, Blood [3]: 0.62 %ID/g and 0.49 %ID/g and 0.38 %ID/g
Ex vivo biodistribution, Bone [3]: 1.34 %ID/g and 1.17 %ID/g and 1.13 %ID/g
Ex vivo biodistribution, Brain [3]: 0.06 %ID/g (2×) and 0.04 %ID/g
Ex vivo biodistribution, Fat [3]: 0.73 %ID/g and 0.74 %ID/g and 0.75 %ID/g
Ex vivo biodistribution, Heart [3]: 1.07 %ID/g and 0.82 %ID/g and 0.83 %ID/g
Ex vivo biodistribution, Kidney [3]: 5.09 %ID/g and 3.73 %ID/g and 3.29 %ID/g
Ex vivo biodistribution, Lung [3]: 5.83 %ID/g and 5.49 %ID/g and 6.59 %ID/g
Ex vivo biodistribution, Muscle [3]: 1.19 %ID/g and 1.07 %ID/g and 1.10 %ID/g
Ex vivo biodistribution, Pancreas [3]: 4.67 %ID/g and 4.17 %ID/g and 4.43 %ID/g
Ex vivo biodistribution, Small intestine [3]: 8.33 %ID/g and 9.66 %ID/g and 6.32 %ID/g
Ex vivo biodistribution, Spleen [3]: 3.05 %ID/g and 3.03 %ID/g and 2.63 %ID/g
Ex vivo biodistribution, Tumour [3]: 2.83 %ID/g and 1.36 %ID/g and 1.23 %ID/g
Ex vivo biodistribution, Blood [4]: 0.04 %ID/g and 0.29 %ID/g and 0.36 %ID/g
Ex vivo biodistribution, Bone [4]: 0.10 %ID/g and 1.21 %ID/g and 0.90 %ID/g
Ex vivo biodistribution, Brain [4]: 0.06 %ID/g
Ex vivo biodistribution, Fat [4]: 0.04 %ID/g and 0.41 %ID/g and 0.31 %ID/g
Ex vivo biodistribution, Heart [4]: 0.06 %ID/g and 0.76 %ID/g and 0.51 %ID/g
Ex vivo biodistribution, Kidney [4]: 0.24 %ID/g and 2.32 %ID/g and 2.51 %ID/g
Ex vivo biodistribution, Liver [4]: 0.62 %ID/g and 5.66 %ID/g and 7.42 %ID/g
Ex vivo biodistribution, Lung [4]: 0.35 %ID/g and 4.77 %ID/g and 2.50 %ID/g
Ex vivo biodistribution, Muscle [4]: 0.10 %ID/g and 1.36 %ID/g and 0.74 %ID/g
Ex vivo biodistribution, Pancreas [4]: 0.31 %ID/g and 3.02 %ID/g and 2.76 %ID/g
Ex vivo biodistribution, Spleen [4]: 0.19 %ID/g and 1.85 %ID/g (2×)
Ex vivo biodistribution, Stomach [4]: 0.53 %ID/g and 6.53 %ID/g and 4.49 %ID/g
Ex vivo biodistribution, Tumour [4]: 0.11 %ID/g and 1.20 %ID/g and 1.12 %ID/g
Ex vivo biodistribution, Lung [5]: 8.24 %ID/g
Compound: CNCc1ccc(-c2[nH]c3cc([18F])cc4c3c2CCNC4=O)cc1 [[^18F]rucaparib]
Ex vivo biodistribution, Spleen [1]: 32.86 %ID/g and 41.87 %ID/g and 47.79 %ID/g
Ex vivo biodistribution, Large intestine [2]: 23.81 %ID/g and 19.26 %ID/g and 15.83 %ID/g
Ex vivo biodistribution, Liver [2]: 12.22 %ID/g and 8.90 %ID/g and 10.25 %ID/g
Ex vivo biodistribution, Pancreas [2]: 13.99 %ID/g and 9.45 %ID/g and 9.78 %ID/g
Ex vivo biodistribution, Small intestine [2]: 16.44 %ID/g and 9.50 %ID/g and 19.42 %ID/g
Ex vivo biodistribution, Spleen [2]: 32.75 %ID/g and 20.87 %ID/g and 15.30 %ID/g
Ex vivo biodistribution, Large intestine [3]: 33.55 %ID/g and 35.89 %ID/g and 30.25 %ID/g
Ex vivo biodistribution, Liver [3]: 13.15 %ID/g and 9.74 %ID/g and 9.86 %ID/g
Ex vivo biodistribution, Stomach [3]: 12.09 %ID/g and 9.73 %ID/g and 6.47 %ID/g
Ex vivo biodistribution, Large intestine [4]: 3.24 %ID/g and 45.68 %ID/g and 25.75 %ID/g
Ex vivo biodistribution, Small intestine [4]: 0.56 %ID/g and 11.02 %ID/g and 5.09 %ID/g
Ex vivo biodistribution, Liver [5]: 12.22 %ID/g and 8.90 %ID/g and 10.25 %ID/g and 12.44 %ID/g and 11.01 %ID/g and 11.46 %ID/g
Ex vivo biodistribution, Spleen [5]: 32.75 %ID/g and 20.87 %ID/g and 15.30 %ID/g and 23.45 %ID/g and 16.14 %ID/g and 14.89 %ID/g
Ex vivo biodistribution, Stomach [5]: 4.66 %ID/g and 5.94 %ID/g and 7.68 %ID/g and 11.59 %ID/g and 5.59 %ID/g and 7.44 %ID/g
